B1: scFv Y-SM083-p04-H04 (scFv)
scFv: [about 100 residues not shown]YTYGGFPFSSFDYWGQGTLVTVSSGGGGSGGGGSGGGGSDIQMTQSPSSLSASVGDRVTITCRASQSISSYLNWYQQKPGKAPKLLIYAASSLQSGVPSRFSGSGSGTDFTLTISSLQPEDFATYYCQQYRFLSTFGQGTKLEIK
B2: scFv Y-SM083-p04-C04 (scFv)
scFv: [about 100 residues not shown]TPPPSSSRSYLDYWGQGTLVTVSSGGGGSGGGGSGGGGSDIQMTQSPSSLSASVGDRVTITCRASQSISSYLNWYQQKPGKAPKLLIYAASSLQSGVPSRFSGSGSGTDFTLTISSLQPEDFATYYCQQYYPLFTFGQGTKLEIK

Target: SM083P004 (Clostridium tetani)

Row | Binder | Kd | koff | kon
1 | B1 | 12 nM | 0.00045 s⁻¹ | 38000 M⁻¹ s⁻¹
2 | B2 | 16 nM | 0.00062 s⁻¹ | 38000 M⁻¹ s⁻¹

Source: patent publication US20220000998A1
